# This is one part of the list. The energies were worked out here from pooled read counts, against the library average; single values are noisy.
# Target: T1, Pho4 (S. cerevisiae) (UniProt P07270)
# T1 sequence: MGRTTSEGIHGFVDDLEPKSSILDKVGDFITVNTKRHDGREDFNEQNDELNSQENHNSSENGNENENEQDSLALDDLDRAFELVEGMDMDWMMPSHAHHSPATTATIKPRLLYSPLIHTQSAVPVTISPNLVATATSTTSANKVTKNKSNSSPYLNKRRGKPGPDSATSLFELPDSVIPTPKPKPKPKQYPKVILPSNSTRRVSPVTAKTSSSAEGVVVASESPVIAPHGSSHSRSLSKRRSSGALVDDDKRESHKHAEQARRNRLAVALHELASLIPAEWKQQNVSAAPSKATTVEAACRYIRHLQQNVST
# Assay: relative binding free energy (BET-seq); higher = weaker binding
# Conditions: reference: library average
row,Sequence,relative binding free energy [kcal/mol]
1,TGTTACACGTGTAGGA,0.06
2,TTGTTCACGTGCGAGT,0.2
3,AAGTACACGTGGGGCT,0
4,ATTTACACGTGTGTAG,0.13
5,TGTCACACGTGTGGCG,0.2
6,AGGGGCACGTGCGCGA,-0.34
7,TGAAGCACGTGAAGGT,0.18
8,TGCGACACGTGGCGGG,-0.14
9,TACGGCACGTGGGGAT,-0.24
10,TAAGTCACGTGTGCGT,0.11
11,ATTCTCACGTGGGTGG,0.1
12,GTATACACGTGATATG,0.11
13,AAGTGCACGTGATGTA,0.11
14,TAGTACACGTGCAGGT,0.04
15,AAGGCCACGTGGGGCG,-0.37
16,TGTTTCACGTGGCGGC,0.28
17,TCGGTCACGTGTGAGC,0.21
18,TCGGTCACGTGTTTGA,0.11
19,TTGAACACGTGTGGTG,0.03
20,AGTTGCACGTGGATTA,0
21,AGGAACACGTGTGTTA,0.13
22,TGCCTCACGTGAGGGT,0.27
23,TGTGGCACGTGCAGTG,-0.17
24,CAGATCACGTGTGGGG,0.24
25,CTGGGCACGTGGTAGG,-0.16
26,ATTCTCACGTGGAATG,0.24

row,Sequence,relative binding free energy [kcal/mol]
1,TGTGACACGTGGTTAT,-0.02
2,GGATACACGTGCGGTT,-0.03
3,GTGGGCACGTGGATTT,0.13
4,GTTAGCACGTGGAAGA,0.21
5,GGTATCACGTGGGACT,-0.04
6,GTGGGCACGTGCGGTC,-0.11
7,AGTGTCACGTGGGATT,-0.01
8,TTAGACACGTGGTTTA,0.05
9,AAGGGCACGTGGTCGA,-0.3
10,GTCGTCACGTGTGTCG,0.26
11,CGGTACACGTGTTAGT,0.06
12,GTGTACACGTGTCGTA,0.18
13,TTGGACACGTGGGGAT,0.04
14,ATGAGCACGTGCGGGA,-0.23
15,CTGTTCACGTGCGTTG,0.21
16,GGGTTCACGTGTTCTA,0.3
17,GGGGACACGTGATTGG,0.22
18,AGTGTCACGTGAGTGC,0.04
19,GTAAACACGTGGGGTC,-0.04
20,CTGCGCACGTGGGTGA,-0.24
21,TGAATCACGTGCGGTT,0.05
22,AGAAGCACGTGTGGGA,0.04
23,TCGAGCACGTGAGTGG,0.12
24,TGGATCACGTGGGGAT,0.1
25,GGTGACACGTGCAGGG,0.07
26,AAGTGCACGTGGGGGG,-0.14

row,Sequence,relative binding free energy [kcal/mol]
1,GGGATCACGTGTGACA,0.43
2,GTAAACACGTGTGCGG,-0.03
3,GGGGCCACGTGTTAGG,0.02
4,GAAGGCACGTGGGTTC,-0.03
5,ATGGTCACGTGAGGGT,0.24
6,TTTGTCACGTGTCAGG,0.12
7,TTATTCACGTGGAGTG,0.29
8,TTGTTCACGTGAGAGA,0.32
9,ATGATCACGTGGCGTG,0.03
10,TCTTTCACGTGGGCTT,0.24
11,ATTGGCACGTGTAGTC,-0.04
12,TTATGCACGTGTCCTG,-0.1
13,AAGTGCACGTGGTGAG,0.05
14,GTTGTCACGTGTCTTT,0.31
15,AAATGCACGTGATGGG,0
16,TAGATCACGTGAGGGA,0.34
17,AAGTTCACGTGTGTCA,0.32
18,GGTGACACGTGCGAGT,0.07
19,ATATTCACGTGAAGTT,0.35
20,TATGCCACGTGTTGTT,-0.18
21,AGTGCCACGTGTGTAT,-0.03
22,GTTTGCACGTGCTTCG,-0.11
23,GAGATCACGTGATTGG,0.17
24,GTTTACACGTGTTTAC,0.2
25,AATTTCACGTGAGTAA,0.39
26,TGTACCACGTGGTGGA,-0.14

row,Sequence,relative binding free energy [kcal/mol]
1,GTTTACACGTGAGAGG,0.34
2,CTTCTCACGTGTAGTG,0.25
3,AGGTTCACGTGAATTG,0.2
4,AATTGCACGTGGGTTG,-0.19
5,TTCTTCACGTGGGGTC,0.15
6,TTGTCCACGTGTTTTC,0.17
7,GATGTCACGTGGTATC,0.14
8,TGTAGCACGTGGCTAT,-0.04
9,CCGGGCACGTGTATGT,-0.05
10,AGTGACACGTGTTTGC,-0.1
11,GCGTTCACGTGGACTG,0.44
12,TTTTGCACGTGGGCCG,-0.22
13,CAGTTCACGTGAGGGT,0.31
14,TAGATCACGTGTGTGG,0.06
15,TGTATCACGTGGTACA,0.16
16,GGATTCACGTGAAGAA,0.5
17,GTGGGCACGTGCTGAA,-0.08
18,AAGTCCACGTGAGGGG,0.12
19,TAGTACACGTGGAGTA,-0.01
20,TGGATCACGTGGGCTG,0.04
21,ATGAGCACGTGGTGCG,-0.12
22,CGCGTCACGTGCGGGT,-0.08
23,TTGATCACGTGCATGG,0.07
24,GTGGACACGTGGTCAT,0.12
25,GGGGTCACGTGGCATG,0.08
26,TTGTGCACGTGTGAAG,0.14

row,Sequence,relative binding free energy [kcal/mol]
1,TTGTACACGTGATGCG,0.13
2,TCAAACACGTGTTTTT,0.1
3,ATCTACACGTGGTATG,0.01
4,TGTCGCACGTGGTTGG,-0.11
5,GGACCCACGTGGTGGT,-0.12
6,GTATTCACGTGGTTGA,0.09
7,TGGGTCACGTGGACGC,0.12
8,TTGCGCACGTGTAAGT,0
9,ATCGACACGTGGGAGG,-0.07
10,GGTTTCACGTGGTATA,0.17
11,CTTTTCACGTGTTCGT,0.17
12,CGTTCCACGTGTGAGT,0.25
13,CGTTACACGTGTGGTT,0.1
14,ACGTGCACGTGCGGAT,-0.07
15,CGTGTCACGTGGGGCT,-0.04
16,ATGAGCACGTGCTTGG,-0.1
17,TTATGCACGTGAGTCG,0.16
18,AAAATCACGTGCTGTG,0.27
19,GAAGACACGTGGGTAG,-0.04
20,TGCGTCACGTGAATGT,0.38
21,GGAAGCACGTGTGGTT,0.04
22,TGGGACACGTGAAGAG,0.38
23,AGATGCACGTGTGCGT,0.02
24,TTTTTCACGTGCGATC,0.44
25,TGGTGCACGTGAATCA,0.21
26,CTGGTCACGTGGGTGT,-0.07

row,Sequence,relative binding free energy [kcal/mol]
1,TACTTCACGTGCGTTT,0.17
2,TTCATCACGTGGGGAG,0.14
3,ATTTACACGTGGTAGG,0.08
4,TGCCGCACGTGTGTTT,0.06
5,AATGGCACGTGTGGAT,-0.12
6,CTTATCACGTGAGTAT,0.3
7,GTGTTCACGTGGAGCT,0.3
8,GTGAACACGTGATGTC,0.36
9,ATTGCCACGTGGGGAT,-0.29
10,TGGGCCACGTGTAGCG,-0.09
11,CGATTCACGTGTAGGG,0.33
12,ATCCGCACGTGGGGGT,-0.25
13,GTCTGCACGTGGGTGA,-0.07
14,CTTGGCACGTGAGAAG,0.17
15,ATTGACACGTGTAGTG,0.04
16,AATTACACGTGTTAGT,0.09
17,AGTTGCACGTGGGTCG,-0.11
18,ATTATCACGTGTGGTC,0.2
19,TCGGGCACGTGGGACG,-0.28
20,ACATTCACGTGTTAGT,0.17
21,TGTGGCACGTGCATTG,-0.12
22,TGTCGCACGTGCAGTG,-0.03
23,ACTTGCACGTGGTGTT,-0.15
24,GGCTGCACGTGTTTTG,0.12
25,TGTTCCACGTGGTCGG,0.05
26,ATAATCACGTGATTGA,0.1

row,Sequence,relative binding free energy [kcal/mol]
1,TCGGTCACGTGGCGTG,-0.01
2,GTAGGCACGTGCCAGG,-0.14
3,TAAGTCACGTGGTCTG,0.02
4,GGTCTCACGTGGGTCT,0.04
5,TTTGTCACGTGTCGTC,0.11
6,TTTGACACGTGGTGTA,-0.19
7,TAATTCACGTGAAGAT,0.34
8,CAAATCACGTGGTGGT,0.03
9,TTTATCACGTGGAGCG,0.24
10,CGTGTCACGTGAATTG,0.37
11,TGTCGCACGTGGCGGG,-0.16
12,CGGATCACGTGAGTGT,0.34
13,GCGGTCACGTGGGGGC,0
14,TTATTCACGTGTAGGC,0.31
15,TTTTGCACGTGCACTG,0.04
16,GATAACACGTGGGGTA,0.02
17,TAACTCACGTGGTTGT,0.19
18,GGTAGCACGTGCTTAT,-0.07
19,AATCTCACGTGGGTGG,0.17
20,ACGTGCACGTGTCGGT,-0.14
21,TATCTCACGTGGTATG,0.21
22,ATTAGCACGTGAGAAG,0.17
23,TGGGACACGTGTGTCA,0.21
24,GATGGCACGTGTGTAG,0.04
25,GGTTACACGTGTTTGC,0.15
26,TTAGTCACGTGGGTAT,0.04

row,Sequence,relative binding free energy [kcal/mol]
1,TTCGTCACGTGTACGG,0.16
2,TGGGTCACGTGCTGGG,0.23
3,GTGTACACGTGTGGCT,0.09
4,TGGTGCACGTGATGAT,0.14
5,TATGTCACGTGAATTT,0.3
6,GGTTGCACGTGGATAA,0.19
7,AGTCGCACGTGAGGGG,0.11
8,GTGATCACGTGGACGT,0.17
9,AACTTCACGTGTTTTG,0.3
10,TACGGCACGTGATGTA,0.11
11,TGGGGCACGTGGCATC,-0.23
12,GAAGACACGTGTGATT,0.23
13,GTGAGCACGTGCTGTT,-0.12
14,AGGTACACGTGGTTAG,-0.05
15,AGGGGCACGTGAATGC,0.11
16,CGGTTCACGTGATGGT,0.39
17,GCTGACACGTGGGAGG,-0.11
18,TAATTCACGTGTGTGT,0.27
19,TATCTCACGTGTGGGC,0.33
20,CAAATCACGTGGGTGG,0.02
21,TTAGGCACGTGGGTGG,-0.17
22,CGGGTCACGTGGCTTT,-0.01
23,GGGTACACGTGTAGGC,0.29
24,CTTTGCACGTGTCGTT,-0.01
25,TGGTACACGTGGGTCA,-0.3
26,GCGAGCACGTGGGTGG,-0.16

row,Sequence,relative binding free energy [kcal/mol]
1,GGAATCACGTGATAGG,0.34
2,CATGGCACGTGTAGTT,-0.01
3,CTTTGCACGTGGCGTT,-0.03
4,TATGGCACGTGATTTC,0.03
5,GAAGCCACGTGGGGTG,-0.17
6,GTGTGCACGTGAAAGC,0.21
7,CGAGACACGTGGGGTA,-0.07
8,TATGACACGTGCCGGT,0.03
9,CTATGCACGTGGGGGT,-0.19
10,TATTTCACGTGGTAGC,0.32
11,TAGGTCACGTGTCAAT,0.11
12,CGTTACACGTGTTTAA,0.28
13,TTATTCACGTGTATTG,0.2
14,AGAGGCACGTGTGGGG,-0.08
15,TTAGGCACGTGTGCCA,0.03
16,TGATTCACGTGTATGG,0.27
17,ATGCACACGTGTGTTT,-0.07
18,AAACACACGTGGTGGG,-0.1
19,ATATTCACGTGCGTAG,0.12
20,GGAGACACGTGGGTTT,-0.04
21,TTTATCACGTGTGCGG,0.08
22,AGTAACACGTGGAGGT,0.02

# Reference: the BET-seq Pho4 binding data (Le et al. 2018)
